In patent US7388070B1, “Structure-based approach to design of inhibitors of protein-processivity factor interactions” (priority 1999, dated 2008):
Part of at least one peptide drawing is inferred or uncertain, most often the ends. For some assays here: For at least one compound, name, drawing or mass did not settle the structure. Some entries share one result that the patent states for a list of compounds. Some compounds share one range, which may span the group rather than tell each member. Ends that are not written are not given here.

Assays:
[1] = molecular target: T1, HSV Pol and UL42 (Human herpesvirus 1, UniProt P10226); experiment: Inhibition of UL42-mediated long-chain DNA synthesis (polymerase assay, poly(dA)/oligo(dT) primer/template); assay type: biochemical; settings: for IC50: read-out: IC50 (concentration of peptide that gives 50% inhibition) of long chain DNA synthesis, ± standard deviation, Pol/UL42, products greater than 18 bases; for inhibition of long-chain DNA synthesis: at 100 μM peptide; for IC50 fold greater than that of peptide E: relative to peptide E
T1 construct: made in house; host or cells: insect cells infected with recombinant baculoviruses
From the text: To perform structure-activity studies, “alanine scan” mutants of peptide E, in which each non-alanine residue was individually converted to an alanine, were synthesized and tested for their ability to inhibit long-chain DNA synthesis by Pol and UTL42. A poly(dA)/oligo(dT15) template/primer was employed. On this primer/template, Pol alone adds only one or two bases, but when UL42 is present, longer DNA products are formed. DNA products greater than 18 bases were quantified at varying peptide concentrations and expressed as a percentage of products formed by Pol/UL42 in the presence of vehicle control.
Reaction mixtures contained 50 mM Tris-Cl (pH 7.6), 100 mM (NH4)2SO4, 3 mM MgCl2, 0.1 mM EDTA, 1 mM dithiothreitol, 0.1 μg BSA, 4% glycerol, 0.25 μg of poly(dA)-oligo(dT) primer/template, […] [^32P]-TTP (5 Ci/mMol), 100 fmol of HSV Pol, 200 fmol of UL42 and varying concentrations of peptide inhibitors in a final volume of 25 μL. Reactions were carried out at 37° C. for 5 to 10 minutes. Reactions were stopped by placing them on ice and adding 5 μL of alkaline loading buffer (2 mM EDTA, 50 mM NaOH, 2.5% glycerol, 0.025% bromcresol green) and were then loaded onto a 4% alkaline agarose gel. Gels were dried overnight and used to expose film and phosphoresence screens. Because Pol alone added only 1-2 nucleotides to the 15 base primer, newly synthesized DNA larger than 18 bases was defined as long-chain and quantified using a Molecular Dynamics Phosphorimager.

[2] = CD spectroscopy, helicity from ellipticity at 222 nm; assay type: physicochemical; settings: calculated from ellipticity values at 222 nm from CD measurements
Protocol: CD spectroscopy was performed in order to determine if the peptides with the least inhibitory activity were altered structurally. […] Therefore, the lack of inhibitory activity of these two mutants may be at least in part due to alterations in structure.
Lyophilized peptides were resuspended in 10 mM KF and adjusted to pH 8 with KOH. Spectra were recorded at the indicated peptide concentrations with an Aviv 62DS SpectroPolarimeter at 0° C. in a 0.1 cm pathlength cuvette. Wavelength scans were recorded at 1 nm intervals with a 5 second averaging time, and 5 to 10 scans were averaged. Peptide concentrations were determined by quantitative amino acid analysis. Unfolding curves were obtained by monitoring mean residue ellipticity at 222 nm as a function of the concentration of guanidine-HCl and temperature.

T1 sequence (P10226 whole entry): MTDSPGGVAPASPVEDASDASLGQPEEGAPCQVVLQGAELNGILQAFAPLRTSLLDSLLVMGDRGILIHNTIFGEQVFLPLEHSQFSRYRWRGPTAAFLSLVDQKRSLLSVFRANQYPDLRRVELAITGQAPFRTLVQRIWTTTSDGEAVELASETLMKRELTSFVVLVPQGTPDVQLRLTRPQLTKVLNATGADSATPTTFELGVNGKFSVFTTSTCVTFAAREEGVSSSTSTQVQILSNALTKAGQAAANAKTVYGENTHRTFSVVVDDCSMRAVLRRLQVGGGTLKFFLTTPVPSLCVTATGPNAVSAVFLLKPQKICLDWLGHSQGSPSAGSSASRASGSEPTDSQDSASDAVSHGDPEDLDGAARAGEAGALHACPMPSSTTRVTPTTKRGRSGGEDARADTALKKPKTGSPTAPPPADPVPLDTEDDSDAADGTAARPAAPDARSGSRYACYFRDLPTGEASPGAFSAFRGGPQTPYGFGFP

**Q.** For ATAEETRAMLHRAFDTLA [Peptide R26A], which IC50 [1] is on record?
**A.** 14 ± 9 µM

**Q.** With `CSCC[C@H](NC(=O)[C@H](CCCNC(=N)N)NC(=O)[C@H](CCCNC(=N)N)NC(=O)[C@@H](NC(=O)[C@H](CCC(=O)O)NC(=O)[C@H](CCC(=O)O)NC(=O)[C@H](C)NC(=O)[C@@H](NC(=O)[C@H](C)NC(C)=O)[C@@H](C)O)[C@@H](C)O)C(=O)N[C@@H](CC(C)C)C(=O)N[C@@H](Cc1c[nH]cn1)C(=O)N[C@@H](CCCNC(=N)N)C(=O)N[C@@H](C)C(=O)N[C@@H](C)C(=O)N[C@@H](CC(=O)O)C(=O)N[C@H](C(=O)N[C@@H](CC(C)C)C(=O)N[C@@H](C)C(N)=O)[C@@H](C)O` [Peptide F32A] as the compound, how does the “inhibition of long-chain DNA synthesis” value [1] read?
**A.** less than 20%

**Q.** What does the source list for `CSCC[C@H](NC(=O)[C@H](CCCNC(=N)N)NC(=O)[C@H](CCCNC(=N)N)NC(=O)[C@@H](NC(=O)[C@H](CCC(=O)O)NC(=O)[C@H](C)NC(=O)[C@H](C)NC(=O)[C@@H](NC(=O)[C@H](C)N)[C@@H](C)O)[C@@H](C)O)C(=O)N[C@@H](CC(C)C)C(=O)N[C@@H](Cc1c[nH]cn1)C(=O)N[C@@H](CCCNC(=N)N)C(=O)N[C@@H](C)C(=O)N[C@@H](Cc1ccccc1)C(=O)N[C@@H](CC(=O)O)C(=O)N[C@H](C(=O)N[C@@H](CC(C)C)C(=O)N[C@@H](C)C(=O)O)[C@@H](C)O` [Peptide E22A]?
**A.** inhibition of long-chain DNA synthesis [1]: less than 20%; % Helicity [2]: 14%

**Q.** With “Ac-ATAEETRRMLHAAFDTLA-NH2 (N-terminus and C-terminus assumed) [Peptide R30A]” as the compound, how does the “inhibition of long-chain DNA synthesis” value [1] read?
**A.** less than 20%

**Q.** Which IC50 [1] does the source give for `CSCC[C@H](NC(=O)[C@H](CCCNC(=N)N)NC(=O)[C@H](CCCNC(=N)N)NC(=O)[C@@H](NC(=O)[C@H](C)NC(=O)[C@H](CCC(=O)O)NC(=O)[C@H](C)NC(=O)[C@@H](NC(=O)[C@H](C)N)[C@@H](C)O)[C@@H](C)O)C(=O)N[C@@H](CC(C)C)C(=O)N[C@@H](Cc1c[nH]cn1)C(=O)N[C@@H](CCCNC(=N)N)C(=O)N[C@@H](C)C(=O)N[C@@H](Cc1ccccc1)C(=O)N[C@@H](CC(=O)O)C(=O)N[C@H](C(=O)N[C@@H](CC(C)C)C(=O)N[C@@H](C)C(=O)O)[C@@H](C)O` [Peptide E23A] here?
**A.** 21 ± 8 µM

**Q.** For `CSCC[C@H](NC(=O)[C@H](CCCNC(=N)N)NC(=O)[C@H](CCCNC(=N)N)NC(=O)[C@H](C)NC(=O)[C@H](CCC(=O)O)NC(=O)[C@H](CCC(=O)O)NC(=O)[C@H](C)NC(=O)[C@@H](NC(=O)[C@H](C)N)[C@@H](C)O)C(=O)N[C@@H](CC(C)C)C(=O)N[C@@H](Cc1c[nH]cn1)C(=O)N[C@@H](CCCNC(=N)N)C(=O)N[C@@H](C)C(=O)N[C@@H](Cc1ccccc1)C(=O)N[C@@H](CC(=O)O)C(=O)N[C@H](C(=O)N[C@@H](CC(C)C)C(=O)N[C@@H](C)C(=O)O)[C@@H](C)O` [Peptide T24A], which IC50 [1] is on record?
**A.** 77 ± 30 µM

**Q.** What about the “IC50 fold greater than that of peptide E” value [1] of the same compound?
**A.** 3 to 7 fold

**Q.** Which “inhibition of long-chain DNA synthesis” value [1] does the source give for `CSCC[C@H](NC(=O)[C@H](CCCNC(=N)N)NC(=O)[C@H](CCCNC(=N)N)NC(=O)[C@@H](NC(=O)[C@H](CCC(=O)O)NC(=O)[C@H](CCC(=O)O)NC(=O)[C@H](C)NC(=O)[C@H](C)NC(=O)[C@H](C)NC(C)=O)[C@@H](C)O)C(=O)N[C@@H](CC(C)C)C(=O)N[C@@H](Cc1c[nH]cn1)C(=O)N[C@@H](CCCNC(=N)N)C(=O)N[C@@H](C)C(=O)N[C@@H](Cc1ccccc1)C(=O)N[C@@H](CC(=O)O)C(=O)N[C@H](C(=O)N[C@@H](CC(C)C)C(=O)N[C@@H](C)C(N)=O)[C@@H](C)O` [Peptide T20A] here?
**A.** less than 20%

**Q.** For “Ac-ATAEETRRMLARAFDTLA-NH2 (N-terminus and C-terminus assumed) [Peptide H29A]”, which “inhibition of long-chain DNA synthesis” value [1] is on record?
**A.** less than 20%

**Q.** Which results are given for `CSCC[C@H](NC(=O)[C@H](CCCNC(=N)N)NC(=O)[C@H](CCCNC(=N)N)NC(=O)[C@@H](NC(=O)[C@H](CCC(=O)O)NC(=O)[C@H](CCC(=O)O)NC(=O)[C@H](C)NC(=O)[C@@H](NC(=O)[C@H](C)N)[C@@H](C)O)[C@@H](C)O)C(=O)N[C@@H](CC(C)C)C(=O)N[C@@H](Cc1c[nH]cn1)C(=O)N[C@@H](CCCNC(=N)N)C(=O)N[C@@H](C)C(=O)N[C@@H](Cc1ccccc1)C(=O)N[C@@H](CC(=O)O)C(=O)N[C@H](C(=O)N[C@@H](CC(C)C)C(=O)N[C@@H](C)C(=O)O)[C@@H](C)O` [Peptide E]?
**A.** IC50 [1]: 11 ± 5 µM; % Helicity [2]: 25%

**Q.** For `CSCC[C@H](NC(=O)[C@H](CCCNC(=N)N)NC(=O)[C@H](CCCNC(=N)N)NC(=O)[C@@H](NC(=O)[C@H](CCC(=O)O)NC(=O)[C@H](CCC(=O)O)NC(=O)[C@H](C)NC(=O)[C@@H](NC(=O)[C@H](C)N)[C@@H](C)O)[C@@H](C)O)C(=O)N[C@@H](CC(C)C)C(=O)N[C@@H](Cc1c[nH]cn1)C(=O)N[C@@H](CCCNC(=N)N)C(=O)N[C@@H](C)C(=O)N[C@@H](Cc1ccccc1)C(=O)N[C@@H](CC(=O)O)C(=O)N[C@H](C(=O)N[C@@H](C)C(=O)N[C@@H](C)C(=O)O)[C@@H](C)O` [Peptide L35A], which IC50 [1] is on record?
**A.** 97 ± 5 µM

**Q.** With `CSCC[C@H](NC(=O)[C@H](CCCNC(=N)N)NC(=O)[C@H](CCCNC(=N)N)NC(=O)[C@@H](NC(=O)[C@H](CCC(=O)O)NC(=O)[C@H](CCC(=O)O)NC(=O)[C@H](C)NC(=O)[C@@H](NC(=O)[C@H](C)NC(=O)CNC(=O)[C@H](C)NC(=O)CNC(=O)[C@@H](NC(=O)[C@H](C)NC(=O)CNC(=O)[C@H](Cc1ccccc1)NC(=O)CNC(=O)[C@H](C)NC(=O)[C@H](C)NC(=O)[C@H](CCCNC(=N)N)NC(=O)[C@H](CC(C)C)NC(=O)[C@H](CCCNC(=N)N)NC(=O)[C@H](C)NC(=O)[C@H](C)NC(=O)[C@@H](NC(=O)[C@H](CC(=O)O)NC(=O)[C@H](CC(=O)O)NC(C)=O)C(C)C)C(C)C)[C@@H](C)O)[C@@H](C)O)C(=O)N[C@@H](CC(C)C)C(=O)N[C@@H](Cc1c[nH]cn1)C(=O)N[C@@H](CCCNC(=N)N)C(=O)N[C@@H](C)C(=O)N[C@@H](Cc1ccccc1)C(=O)N[C@@H](CC(=O)O)C(=O)N[C@H](C(=O)N[C@@H](CC(C)C)C(=O)N[C@@H](C)C(=O)O)[C@@H](C)O` [Peptide A] as the compound, how does the IC50 [1] read?
**A.** 1.7 ± 1 µM

**Q.** With ATAEETRRMAHRAFDTLA [Peptide L28A] as the compound, how does the IC50 [1] read?
**A.** 18 ± 6 µM

**Q.** With `CSCC[C@H](NC(=O)[C@H](CCCNC(=N)N)NC(=O)[C@H](CCCNC(=N)N)NC(=O)[C@@H](NC(=O)[C@H](CCC(=O)O)NC(=O)[C@H](CCC(=O)O)NC(=O)[C@H](C)NC(=O)[C@@H](NC(=O)[C@H](C)N)[C@@H](C)O)[C@@H](C)O)C(=O)N[C@@H](CC(C)C)C(=O)N[C@@H](Cc1c[nH]cn1)C(=O)N[C@@H](CCCNC(=N)N)C(=O)N[C@@H](C)C(=O)N[C@@H](Cc1ccccc1)C(=O)N[C@@H](CC(=O)O)C(=O)N[C@@H](C)C(=O)N[C@@H](CC(C)C)C(=O)N[C@@H](C)C(=O)O` [Peptide T34A] as the compound, how does the IC50 [1] read?
**A.** 10 ± 5 µM

**Q.** With `CSCC[C@H](NC(=O)[C@H](CCCNC(=N)N)NC(=O)[C@H](CCCNC(=N)N)NC(=O)[C@@H](NC(=O)[C@H](CCC(=O)O)NC(=O)[C@H](CCC(=O)O)NC(=O)[C@H](C)NC(=O)[C@@H](NC(=O)[C@H](C)NC(C)=O)[C@@H](C)O)[C@@H](C)O)C(=O)N[C@@H](CC(C)C)C(=O)N[C@@H](Cc1c[nH]cn1)C(=O)N[C@@H](CCCNC(=N)N)C(=O)N[C@@H](C)C(=O)N[C@@H](Cc1ccccc1)C(=O)N[C@@H](C)C(=O)N[C@H](C(=O)N[C@@H](CC(C)C)C(=O)N[C@@H](C)C(N)=O)[C@@H](C)O` [Peptide D33A] as the compound, how does the IC50 [1] read?
**A.** 50 ± 13 µM

**Q.** What about the “IC50 fold greater than that of peptide E” value [1] of the same compound?
**A.** 3 to 7 fold

**Q.** For ATAEETARMLHRAFDTLA [Peptide R25A], which IC50 [1] is on record?
**A.** 40 ± 13 µM

**Q.** What about the “IC50 fold greater than that of peptide E” value [1] of the same compound?
**A.** 3 to 7 fold
